The whole screen tested about 310,000 compounds, of which about 2,200 (0.71%) showed an effect of 50% or more. The effect is printed as a negative number. The list shows a part of the results.
Biological target: human ether-à-go-go-related gene (hERG) potassium channel (human, UniProt Q12809)
Test: primary screen, population patch clamp on CHO cells stably expressing hERG

human ether-à-go-go-related gene (hERG) potassium channel, sequence (Q12809 whole entry, looked up): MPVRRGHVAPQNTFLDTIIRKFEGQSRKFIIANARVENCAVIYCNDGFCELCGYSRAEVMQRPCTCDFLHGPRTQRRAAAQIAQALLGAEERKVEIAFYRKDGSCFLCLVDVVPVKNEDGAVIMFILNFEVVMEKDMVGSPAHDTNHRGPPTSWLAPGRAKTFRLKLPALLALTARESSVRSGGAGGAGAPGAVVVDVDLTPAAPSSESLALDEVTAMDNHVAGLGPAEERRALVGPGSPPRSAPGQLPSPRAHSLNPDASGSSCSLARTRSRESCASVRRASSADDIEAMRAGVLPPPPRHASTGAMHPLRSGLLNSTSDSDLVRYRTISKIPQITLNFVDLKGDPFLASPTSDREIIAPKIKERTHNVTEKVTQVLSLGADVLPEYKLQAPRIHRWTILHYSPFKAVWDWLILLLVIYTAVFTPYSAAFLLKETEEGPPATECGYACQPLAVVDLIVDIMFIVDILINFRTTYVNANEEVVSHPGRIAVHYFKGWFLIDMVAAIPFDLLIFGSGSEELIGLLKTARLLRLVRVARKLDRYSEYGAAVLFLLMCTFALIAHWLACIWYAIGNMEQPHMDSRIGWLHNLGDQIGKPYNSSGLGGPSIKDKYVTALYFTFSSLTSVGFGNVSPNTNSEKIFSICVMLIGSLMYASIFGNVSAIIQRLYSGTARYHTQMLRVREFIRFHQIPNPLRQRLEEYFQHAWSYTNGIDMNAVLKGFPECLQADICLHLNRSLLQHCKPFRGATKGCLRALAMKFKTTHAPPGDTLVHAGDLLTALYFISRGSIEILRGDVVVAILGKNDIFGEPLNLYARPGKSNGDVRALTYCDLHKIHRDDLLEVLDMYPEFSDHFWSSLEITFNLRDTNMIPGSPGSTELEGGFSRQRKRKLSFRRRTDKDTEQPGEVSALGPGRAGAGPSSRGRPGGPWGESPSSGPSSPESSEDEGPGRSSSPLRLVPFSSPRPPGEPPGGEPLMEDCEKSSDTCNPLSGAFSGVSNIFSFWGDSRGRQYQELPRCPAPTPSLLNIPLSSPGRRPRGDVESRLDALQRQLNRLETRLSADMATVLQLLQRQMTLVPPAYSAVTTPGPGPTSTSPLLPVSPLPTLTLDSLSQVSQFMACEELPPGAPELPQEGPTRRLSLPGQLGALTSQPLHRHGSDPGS

| SMILES | hERG current change (%, negative = inhibition) at 1uM |
| --- | --- |
| CNC(=O)C1CC(=O)N(CCc2ccccc2)C(=Nc2ccc(OC)cc2)S1 (stereo not drawn) | 8.93% |
| CCOC(=O)N1CCN(S(=O)(=O)c2cc(OCC)ccc2OCC)CC1 | 11% |
| CC(C)CNC(=O)C1CCN(S(=O)(=O)c2ccc(-n3cnnn3)cc2)CC1 | -15.5% |
| COc1ccc(S(=O)(=O)N2CCC(C(=O)NCCN3CCOCC3)CC2)cc1 | 13.1% |
| CCc1cc2cc3c(cc2nc1SCC(=O)OC(C)C)OCO3 | 9.59% |
| NC(=O)c1cnn2c(C(F)(F)F)cc(-c3ccccc3)nc12 | -2.43% |
| O=C(N1CCOCC1)n1cnc2ccccc21 | 7.66% |
| O=C(c1ccc([N+](=O)[O-])cc1Cl)N1CCN(c2ccccn2)CC1 | 3.75% |
| Nc1nonc1-n1nnc(C(=O)N/N=C/c2ccc(OCc3ccccc3)cc2)c1CN1CCCCC1 | 17.8% |
| CCCC(=O)NCCc1nc2cc([N+](=O)[O-])ccc2n1C | 14.4% |
| O=c1[nH]ncc(N/N=C\c2ccncc2)c1Cl | 10.2% |
| Cn1c(=O)c(=O)n(C)c2cc(S(=O)(=O)N3CC(=O)N(CCc4ccccc4)C(=O)C3)ccc21 | 17.6% |
| COc1cccc(NP(=O)(Oc2ccc(Cl)cc2)Oc2ccc(Cl)cc2)c1 | 2.61% |
| CCOC(=O)Nc1ccc2c(c1)N(C(=O)CCN1CCN3CCCC3C1)c1ccccc1CC2.Cl.O (stereo not drawn) | 10.9% |
| Cc1n[nH]c(C)c1CCCCOc1ccccc1F | 8.91% |
| CC(C)(C)OC(=O)NCCC(=O)N/N=C/c1cccc2nccnc12 | 2.42% |
| O=C(CN1C(=O)c2ccccc2C1=O)Nc1cccc2cccnc12 | 7.27% |
| COc1ccc(C(=O)COC(=O)CN2CC(=O)Oc3ccccc32)cc1Br | 15% |
| COC(=O)CCN(C(=O)c1ccc([N+](=O)[O-])cc1)c1ccccn1 | 12.1% |
| CCOC(=O)N1CCN(c2ccc(C(=O)c3ccccc3)cc2F)CC1 | 0.783% |
| CCc1cc(Cn2nc(-c3ccccc3)cc2C(=O)NCc2cccc(C(F)(F)F)c2)on1 | 16.1% |
| Cc1ccc(NC(=O)CN(C)S(=O)(=O)c2cccc3nsnc23)cc1 | 2.47% |
| CC(CCc1ccccc1)NC(=O)CN1CCOc2ccccc21 (stereo not drawn) | 1.75% |

| SMILES | hERG current change (%, negative = inhibition) at 1uM |
| --- | --- |
| CC(OC(=O)/C=C/c1cccs1)C(=O)Nc1ccc(S(N)(=O)=O)cc1 (stereo not drawn) | 3.24% |
| Cc1nc2ccccn2c1C(=O)NN | 4.1% |
| c1ccc(C(NCCNC(c2ccccc2)c2ccccc2)c2ccccc2)cc1 | 12.6% |
| CNc1ccc(/C=C2\COc3ccccc3C2=O)cc1[N+](=O)[O-] | 5.43% |
| CC(=O)N1CCc2c(sc(NC(=O)CCS(=O)(=O)c3ccc(C)cc3)c2C(N)=O)C1 | 10.3% |
| O=C1OC2(c3ccccc3)C3CCCC2C13 | 11.8% |
| COCc1cc(C)nc(SCC[N+](C)(C)CC(=O)c2ccc(Br)cc2)c1C#N.[Br-] | 8.71% |
| Br.Cn1c(=N)n(CC(=O)c2ccc(Br)cc2)c2ccccc21 | -2.79% |
| O=C1OC(c2ccccc2)=N/C1=C\N1CCCCC1 | 11% |
| O=C(NCCc1c[nH]c2ccccc12)c1cc(S(=O)(=O)N2CCCCC2)ccc1N1CCOCC1 | 4.14% |
| Cc1ccccc1CS(=O)(=O)c1ccc(C(=O)N2CCOCC2)cc1[N+](=O)[O-] | -11% |
| Cc1ccc(-c2nn(CC(=O)N3CCOCC3)c(=O)c3ccccc23)cc1S(=O)(=O)N(C)C | 4.03% |
| COc1cc(C2SCC(=O)Nc3c2c(=O)[nH]n3C2CCCCCC2)cc(OC)c1OC (stereo not drawn) | 1.79% |
| O=c1c2[nH]c3ccc(F)cc3c2ncn1CC1CCCO1 (stereo not drawn) | 4.81% |
| Fc1ccc(NC(=S)N2CCc3ccccc3C2)c(F)c1 | 8.56% |
| Br.N=c1scc(-c2ccccc2)n1/N=C/c1ccco1 | 13.4% |
| CC(C)(C)OC(=O)NNC(=O)c1ccc(Cl)cc1 | 8.45% |
| CCc1nnc(NC(=O)c2ccc(S(=O)(=O)N(C)c3ccccc3)cc2)o1 | -8.63% |
| COc1cc(/C=N/N2C(=O)CSC2=S)ccc1O | 4.32% |
| O=C(Nc1nc2c(s1)CCc1ccccc1-2)c1cccs1 | -0.438% |
| O=NN(CCCl)C(=O)NCCCl | 13.5% |
| CC1=C(C/C=C(\C)CCC[C@H](C)CCC[C@H](C)CCCC(C)C)C(=O)c2ccccc2C1=O | 10.2% |

— paper PMC4336329 (PLoS ONE, 2015)
